From the supplement of paper PMC8728848
The full list was thinned out, with the strongest signals kept by preference.

test system: Gal4S(b1-4)GlcNAc; assay: glycan array binding signal (z-score within array); higher = stronger binding; conditions: glycan notation: IUPAC condensed, linker removed
Outline: (§1)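 Negative Z-scores can be read as non-binding. The Z-score is calculated within each array and then averaged across arrays of one protein sequence at different concentrations or buffers and across linkers. Arrays, 3228 in all, were curated from the Consortium for Functional Glycomics database and kept only where the protein sequence was available.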

Row | Substance | glycan array binding signal (z-score)
1 | M-Ficolin G221F (Homo sapiens) (chain not printed) | -0.157
2 | M-Ficolin A256V (Homo sapiens) (chain not printed) | -0.163
3 | Meso764 (Homo sapiens) (chain not printed) | 0.093
4 | Galectin-8 C-terminal CRD (Homo sapiens) (chain not printed) | -0.232
5 | Siglec-2 (Homo sapiens) (chain not printed) | -0.218

test system: Gal4S6S(b1-4)GlcNAc; assay: as above; conditions: glycan notation: IUPAC condensed, linker removed
Outline: as §1

Row | Substance | glycan array binding signal (z-score)
6 | Gal 8-short (Homo sapiens) (chain not printed) | -0.505
7 | M-Ficolin A256V (Homo sapiens) (chain not printed) | -0.124
8 | Serum Amyloid P component (Homo sapiens) (chain not printed) | 1.24

test system: GalNAc(b1-3)Gal(a1-4)Gal(b1-4)GlcNAc; assay: as above; conditions: glycan notation: IUPAC condensed, linker removed
Outline: as §1

Row | Substance | glycan array binding signal (z-score)
9 | VWF (Homo sapiens) (chain not printed) | -0.296
10 | M-Ficolin A256V (Homo sapiens) (chain not printed) | -0.161
11 | Serum Amyloid P component (Homo sapiens) (chain not printed) | -0.586

test system: GlcA(b1-3)GlcNAc; assay: as above; conditions: glycan notation: IUPAC condensed, linker removed
Outline: as §1

Row | Substance | glycan array binding signal (z-score)
12 | Thrombomodulin Extracellular (Homo sapiens) (chain not printed) | 0.078
13 | L-Ficolin (Homo sapiens) (chain not printed) | -0.399
14 | NCAM1 (Homo sapiens) (chain not printed) | 5.9
15 | Siglec-2 (Homo sapiens) (chain not printed) | -0.205

test system: GlcA(b1-6)Gal; assay: as above; conditions: glycan notation: IUPAC condensed, linker removed
Outline: as §1

Row | Substance | glycan array binding signal (z-score)
16 | Gal 8-short (Homo sapiens) (chain not printed) | -0.703
17 | L-Ficolin (Homo sapiens) (chain not printed) | 0.4
18 | Galectin-8 C-terminal CRD (Homo sapiens) (chain not printed) | -0.345
